In this assay the test system is NCI-H322M lung. Briefly: growth of human tumour cells (NCI), 48 h.

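Compound exposure: 48 hours, 5 concentrations, 96-well plates. GI50 is the concentration that inhibits growth by half. TGI: total growth inhibition.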 Where only a bound is given, the exact number is not on record here.

For `CC1SC2=NC3=C(c4ccccc4C3=O)C(c3ccc(F)cc3)N2C1=O` (stereo not drawn), the TGI is above 100 µM.

Molecule `CCCCCCCCCCCC(=O)OCC1OC(n2cc(F)c(=O)[nH]c2=O)C(NC(=O)OCc2ccccc2)C(OC(=O)CCCCCCCCCCC)C1O` (stereo not drawn) yielded a TGI above 100 µM. Take `O=C(/C=C/c1ccccc1)CCN1CCN(CCC(=O)/C=C/c2ccccc2)CC1`: the TGI came to 62.5 µM.

`COc1cccc(N=Cc2cc3cc(Br)ccc3nc2Cl)c1` came in with a TGI above 50 µM. On to `N=C(N)c1ccc(-c2ccc(-c3cc(Cl)cc(Cl)c3)o2)nc1`, for which the GI50 is 1.74 µM and the TGI amounted to 3.36 µM.

As to `COc1ccc(OCc2nc3cc(C(F)(F)F)ccc3nc2-c2ccccc2)cc1`, the TGI was above 100 µM.

For the molecule `CCCC(C)c1cc(Cc2cc(Cl)cc(Cl)c2O)c(O)c(Cc2cc(Cl)cc(Cl)c2O)c1` (stereo not drawn), the GI50 was 2.87 µM and the TGI is 11.8 µM. The molecule `CSc1ncc2c(C#N)c3sc4ccccc4n3c(=O)c2n1` showed a TGI above 100 µM. On the same count and under the same terms, with `COc1ccc2c(C)cc(N/N=C(\C)C=O)nc2c1` the figure was 24.8 µM. On to `O=C(/C=C(\O)c1ccccc1)C(=O)NNc1ccc([N+](=O)[O-])cc1[N+](=O)[O-]`, for which the TGI worked out at 63.7 µM.

On to `Cc1ccccc1[P+](Cc1ccccc1)(c1ccccc1)c1ccccc1`, for which the GI50 is 4.09 µM and the TGI came out at 59 µM. `CCOC(=O)COc1ccccc1/C=C1\CCC(CN(C)C)C1=O` (stereo not drawn) gave a TGI of 31.5 µM.

With `CC(=O)N1C(Nc2ccccn2)CCN1c1ccccc1` (stereo not drawn), the TGI is above 10 µM. Still for that read-out and setting: with `O=C(/C=C/c1ccccc1)/C=N/N1C(=S)N(c2ccccc2)C(=Nc2ccccc2)C1=Nc1ccccc1` the figure was above 100 µM; with `CCCc1[nH]c(SCCCCCCCCSc2nc(-c3ccc(F)cc3)c(CCC)[nH]2)nc1-c1ccc(F)cc1`, above 100 µM; with `COc1ccc(C2=Nc3ccccc3NC(=O)C2)cc1`, above 100 µM. On to `Cc1ccc(N=Nc2c(O)c(C(=O)O)cc3ccccc23)cc1C`, for which the TGI is above 100 µM. In the case of `COc1ccc(-c2nc3sc4c(c3c(=O)[nH]2)CCCCCC4)cc1`, the GI50 is above 33.2 µM and the TGI is above 33.2 µM.

`C[n+]1c2ccccc2c(C(=O)Nc2ccc(S(=O)(=O)Nc3ccnn3-c3ccccc3)cc2)c2ccccc21` displayed a TGI above 100 µM. Same read-out and setting: the value for `CCOC(=O)C1(C(=O)OCC)Nc2cccnc2N(C)N1` was above 100 µM. For the molecule `COC(=O)C(=O)C1(CCC(C)=O)c2ccccc2-c2c(C)ccc(C)c21` (stereo not drawn), the TGI is above 100 µM. `Cc1ccc(C2=Nc3cccc4cccc(c34)N2)cc1` yielded a TGI above 100 µM. On to `COc1cc(/C=C/c2cc(O)c3cc(C(C)=O)c(=O)oc3c2)cc2c1O[C@]1(C)CC[C@@H](O)C(C)(C)[C@H]1C2`, for which the GI50 was above 26.5 µM and the TGI was above 47.1 µM. Regarding `CCCCC(CC)CN=C(N)NC(N)=NCCCCCCN=C(N)NC(N)=NCC(CC)CCCC` (stereo not drawn), the GI50 was 3.11 µM and the TGI was determined as 9.64 µM. For the molecule `CC1C=C(OC(=O)c2ccccc2)C(=O)C(n2cc(F)c(=O)[nH]c2=O)O1` (stereo not drawn), the TGI is above 100 µM. `COc1ccc2oc(=N)c(C(=O)NCc3ccccc3)cc2c1` came in with a TGI above 100 µM. On the same count and under the same terms, the value for `CCCCCCCCCCC(C(=O)O)C1(C(=O)O)CCC(=O)O1` (stereo not drawn) was above 100 µM. Turning to `CN(C)CCNc1c2c(c(NCCN(C)C)c3[nH]ccc13)C(=O)c1ccccc1C2=O`, the GI50 is 0.67 µM and the TGI came to 3.15 µM.

For `O=[N+]([O-])C1C2C=CC(C2)[C@H]1c1ccco1` (stereo partly drawn), the TGI is above 100 µM. With `CC(CCC(=O)O)[C@H]1CCC2[C@@H]3CC[C@@H]4CC(O)CC[C@]4(C)C3CC[C@@]21C` (stereo partly drawn), the GI50 was 58.8 µM and the TGI is above 100 µM. Consider `CCOC(=O)c1cc(NS(=O)(=O)c2ccccc2)cc(C(=O)OCC)c1`, for which the GI50 was above 100 µM and the TGI was above 100 µM.

In turn, `Cc1ccc(NC(=O)C(=O)C(C#N)c2ccccc2C)cc1C` (stereo not drawn) had a TGI above 100 µM. Take `Cn1cc(-c2ccc3occ(-c4cccc(-c5ccncc5)c4)c3n2)cn1`: the GI50 was 2.41 µM and the TGI is above 100 µM. For `CN1CCC(n2cnc(-c3ccc(F)cc3)c2-c2ccnc(NCCO)n2)CC1`, in that order: above 25 µM and above 25 µM.

In turn, `CCNCCNc1c2ccccc2nc2ccccc12` yielded a TGI of 4.98 µM. Molecule `NC(=O)N/N=C1\CCCCc2ccccc21` showed a TGI above 10 µM. In the case of `CC(=O)OCC1OC(SC2=N/C(=C\c3cc4c(=O)c5ccccc5sc4s3)C(=O)N2c2ccccc2)C(OC(C)=O)C(OC(C)=O)C1OC(C)=O` (stereo not drawn), the TGI was above 100 µM. Regarding `COC(=O)C(CC12CC3CC(CC(C3)C1)C2)NC(=O)C(N)CC(=O)O` (stereo not drawn), the TGI is above 100 µM.

Turning to `CN(C)CCCNC(CC#N)CCC#N` (stereo not drawn), the TGI is above 10 µM. Regarding `COc1ccc(-c2ccc(/C=N/n3c(COc4ccc(Cl)cc4Cl)nn(CN4CCOCC4)c3=S)o2)c([N+](=O)[O-])c1`, the GI50 was 25.1 µM and the TGI was determined as 78.3 µM. As to `CCOC(=O)N(Cc1cccs1)c1cc(OC)c(OC)c(OC)c1`, the TGI was above 100 µM.

`Cn1cccc1-c1cc(-c2cccs2)nc(N)c1C#N`: the GI50 is above 100 µM and the TGI is above 100 µM. In turn, `O=C(/C=C/c1csc(-c2ccccc2)n1)NCc1ccc(C(=O)NCCc2ccccc2)cc1` gave a TGI above 100 µM. Still for that read-out and setting: with `O=C1C(Br)=CC2(C=C1Br)CCNC1=C2C(=O)c2ccccc2C1=O` the figure was above 100 µM; with `O=C1CC(c2ccc(O)cc2)C2(O1)C(=O)OC(C(O)CO)C2O` (stereo not drawn), above 100 µM.

Regarding `CCN(CC)c1ccc(C(=O)c2ccccc2C(=O)O)c(O)c1`, the TGI was above 100 µM.

`C=CCOc1ccc(/C(N=Nc2ccc([N+](=O)[O-])cc2)=N/NC(=O)c2ccccc2)cc1OC` had a TGI above 100 µM. Regarding `COc1ccc(-c2c3c(N)nc(-c4ccncc4)nc3nc3c2c(C)nn3-c2ccccc2)cc1`, the GI50 is 81.4 µM and the TGI was above 100 µM. Molecule `CCOC(=O)CSc1nc(N)c2c(-c3ccc(OC)c(OC)c3)c3c(nc2n1)CCCC3` came in with a TGI above 100 µM. With `C#CCOCn1cnc2c(Cl)ncnc21`, the TGI is above 100 µM. In turn, `CC1(C)C(=NNC(=O)C[N+](C)(C)C)C(C)(C)C1=NNC(=O)C[N+](C)(C)C` returned a TGI above 100 µM. The same measure, in the same setting: with `O=C(N/N=C(/c1ccccc1)C(F)(F)F)c1ccncc1` the figure was above 100 µM; with `COc1ccc(/C=C2\C(=O)N(C3OC(COC(C)=O)C(OC(C)=O)C(OC(C)=O)C3OC(C)=O)c3ccccc3N=C2N)cc1` (stereo not drawn), above 100 µM. Take `COc1ccc2sc3c(NCCCN(C)C)nc4ccccc4c3c(=O)c2c1`: the GI50 was 1.67 µM and the TGI is 3.08 µM. For `NCCOCCOCCNc1nc(Cc2ccccc2)nc(NCCCN2CCCC2=O)n1`, in that order: above 100 µM and above 100 µM. Regarding `O=C(CSc1nnc(-c2ccc(N=Cc3ccc(Cl)cc3)cc2)o1)Nc1ccc(Cl)cc1Cl`, the TGI was found to be 85.2 µM.

In the case of `O=S(=O)(O)c1ccc(O)c2ncc(Cl)cc12`, the TGI is above 100 µM. `CC1(C)CC(=O)c2c(C(F)(F)F)nn(-c3ccc(C(N)=O)c(NC4CCC(OC(=O)CN)CC4)c3)c2C1` (stereo not drawn): the GI50 is 25.8 µM and the TGI is above 100 µM.

As for `CC1CNc2ccccc2N=C1NN` (stereo not drawn), the TGI is above 100 µM. On the same count and under the same terms, with `O=C(CCCN1CCC2(CC1)OC(=O)N(c1ccccc1)C2=O)c1ccccc1` the figure was above 100 µM; with `CC#CC#C/C=C1/O[C@]2(CCC(OC(C)=O)CO2)[C@@H]2O[C@H]12` (stereo partly drawn), above 100 µM.

Source of the values: PubChem BioAssay (NCI).
